Reference: PMC7363153, “Disassembly of Tau fibrils by the human Hsp70 disaggregation machinery generates small seeding-competent species” (The Journal of Biological Chemistry, 2020)

Target: the molecule itself
Assay: fibril assembly shown by sedimentation (centrifugation) + negative-stain EM; 40 uM Tau with 10 uM heparin, 37 °C, shaking at 600 rpm for 4 days; assembly checked by centrifugation at 113,000 x g (35 min, 20 °C) and negative-stain TEM; untreated fibrils (2 uM) also spun at 20,000 x g in the sedimentation assay

B1: 1N3R Tau (natural protein)
chain: not shown
notes: Used as monomer or as fibrils assembled at 40 uM with 10 uM heparin; also called recombinant 1N3R Tau
B1: binds.
